± gives the standard deviation of the averaged measurements. The full ranking holds about 33,000 sequences; the median of “E-score (dimensionless, -0.5 to 0.5)” is about -0.046, and the highest 2% start at about 0.36. This is one part of the list.
system: T1, SpTbr T-box DNA-binding domain (GST fusion); assay: PBM E-score of 8-mer (E-score (dimensionless, -0.5 to 0.5)); Tbr is Tbrain of the sea star Patiria miniata (Pm) or the sea urchin Strongylocentrotus purpuratus (Sp); higher = stronger binding preference; most listed sequences are background and not binding sites; conditions: the construct has about 5 more residues each side
T1 sequence: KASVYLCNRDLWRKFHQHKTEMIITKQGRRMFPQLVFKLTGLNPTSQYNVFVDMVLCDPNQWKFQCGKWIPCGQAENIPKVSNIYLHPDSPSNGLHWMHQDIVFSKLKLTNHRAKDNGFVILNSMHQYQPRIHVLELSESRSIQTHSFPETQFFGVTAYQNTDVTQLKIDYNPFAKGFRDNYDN
In short: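 Each ungapped 8-mer received an enrichment E-score from the Universal PBM Analysis Suite, averaged over duplicate arrays. The proteins were Tbr T-box DNA-binding domains, covering the whole T-box plus about five flanking residues, fused to GST and expressed in BL21 E. coli at 20 °C before glutathione affinity purification. Universal Agilent oligonucleotide arrays were made double-stranded by primer extension and incubated with 200 nM protein in PBS (pH 7.5). The arrays were then scanned and quantified, and every 8-mer was scored from probe intensities.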

Sequence | PBM E-score of 8-mer
CCCCTGGC | -0.101 ± 0.024
CAGTGAAG | 0.0203 ± 0.027
ATCTTGGG | -0.181 ± 0.042
GTAGAGTA | -0.138 ± 0.067
GGTCACAA | 0.2073 ± 0.00096
GACTAATC | -0.12 ± 0.024
GTCCCAAC | -0.198 ± 0.015
CAAGGTGC | 0.421 ± 0.0087
ACTAATTC | -0.0835 ± 0.014
AAAGGCCC | -0.3751 ± 0.0018
AGCATTCA | -0.0969 ± 0.071
GATGCATC | -0.279 ± 0.056
ATCCATAA | -0.205 ± 0.037
AGTGATTC | 0.138 ± 0.052
ACGGTAAT | -0.0139 ± 0.064
ACATCAGA | -0.198 ± 0.078
AGACGTGC | 0.0338 ± 0.037
AGCCTGTA | -0.21 ± 0.015
GCGTAAGA | -0.00479 ± 0.014
AACGGAGG | 0.0387 ± 0.059
AAAATCCA | -0.268 ± 0.01
GACTACCC | -0.111 ± 0.024
AATAGGCG | 0.161 ± 0.023
AACTCTGT | -0.042 ± 0.025
CGCCTACC | 0.108 ± 0.0016

Sequence | PBM E-score of 8-mer
ACCATCAC | 0.2525 ± 0.0011
GCGAACTA | 0.272 ± 0.0034
AGCATTGC | -0.0499 ± 0.076
GGGTACAA | -0.302 ± 0.016
CGGCAAAG | -0.233 ± 0.029
ACGTTTCA | -0.0602 ± 0.01
CGACCGGC | -0.054 ± 0.056
AAACATCT | -0.163 ± 0.057
GGTATCCA | -0.317 ± 0.072
GTTGGTCA | -0.052 ± 0.042
AACTAGCA | 0.178 ± 0.019
ACATCCTG | -0.0152 ± 0.034
AGTAATCG | 0.087 ± 0.023
AGACTGCT | -0.259 ± 0.018
AGATCTGC | 0.1 ± 0.0022
GCGTTCCC | 0.0935 ± 0.063
GTCCTACA | -0.182 ± 0.021
ACTTGATC | -0.11 ± 0.02
GGACGTTA | -0.24 ± 0.018
AGCATAAG | -0.258 ± 0.046
AATCTGTA | -0.191 ± 0.059
ATCACATC | 0.109 ± 0.02
ATACAAAT | -0.26 ± 0.0076
TAATAGCA | 0.114 ± 0.087
GCCCCCGA | -0.173 ± 0.055

Sequence | PBM E-score of 8-mer
ATTTCTTA | -0.197 ± 0.048
ACTGTTGG | 0.144 ± 0.029
AGACGAAT | -0.0499 ± 0.015
CGATGAAG | 0.00937 ± 0.009
AAGCATCG | -0.208 ± 0.016
ATCTTCCG | -0.0952 ± 0.073
ACCGATCT | -0.0569 ± 0.026
CCGCAATC | -0.0149 ± 0.00019
AGAGTCTC | -0.00505 ± 0.057
CCTTAACA | 0.221 ± 0.054
AGGGGATA | -0.145 ± 0.048
ATTTAGTG | 0.089 ± 0.0092
ATGATATA | -0.0184 ± 0.0082
CTACTCCC | -0.28218 ± 7.1e-05
AGGTGTAT | 0.281 ± 0.011
ATAGCACA | 0.156 ± 0.06
ACGGTTAC | -0.0916 ± 0.0079
CGTAAACG | 0.132 ± 0.0021
CTTGGGAC | -0.176 ± 0.013
CTACCGTA | -0.106 ± 0.02
ACCGTTTC | -0.0737 ± 0.069
AAGTCTGT | -0.148 ± 0.015
GACCGCCC | -0.266 ± 0.006
CGGGTTGC | 0.117 ± 0.042
ATACGAAG | -0.163 ± 0.037

Sequence | PBM E-score of 8-mer
AAATAAAC | -0.0755 ± 0.03
CCGACAGC | 0.0618 ± 0.012
CCCTTTAG | -0.066 ± 0.044
CTACTAGA | -0.274 ± 0.038
AAGACGAA | -0.262 ± 0.011
TAATGCAA | -0.121 ± 0.037
ATCTCTCC | -0.186 ± 0.01
CAAATATG | -0.111 ± 0.089
CTAACCAG | -0.0504 ± 0.022
GCCAACGC | 0.104 ± 0.027
GATCAATC | -0.18 ± 0.049
AAACAGGA | -0.22 ± 0.036
CAGCGCTG | -0.0514 ± 0.065
CCGTAGGA | -0.156 ± 0.057
AATGCGCC | 0.102 ± 0.0031
GGAAGGCA | -0.0731 ± 0.02
CCATTTTA | -0.0241 ± 0.076
CGTGGCCA | 0.0471 ± 0.044
AACTTTCT | -0.0316 ± 0.029
ATTTCTCC | -0.0476 ± 0.041
ATAGTAGC | -0.0197 ± 0.089
GGACGGCA | -0.108 ± 0.04
CGGATCGC | 0.065 ± 0.0046
GTGTGACA | 0.457 ± 0.0047
AAGCTGAA | -0.151 ± 0.035

Sequence | PBM E-score of 8-mer
ACTTGCCG | 0.14 ± 0.053
ATCGAGTG | 0.147 ± 0.068
GGAGCACC | -0.173 ± 0.18
AGTATGGC | -0.0766 ± 0.024
CTGACAAC | 0.259 ± 0.018
AGGTTTCG | -0.00807 ± 0.075
ATCAGGAC | -0.3 ± 0.086
ATCGCCGC | -0.0342 ± 0.074
GTCCGCGA | 0.218 ± 0.077
AAGGTGCC | 0.364 ± 0.0073
GTTGATAA | 0.123 ± 0.022
GGCCTCCA | -0.283 ± 0.046
ACGGCTTC | -0.0947 ± 0.026
GAGAATGA | 0.066 ± 0.034
CGACCACG | 0.0943 ± 0.031
CTGCAGCC | -0.0833 ± 0.066
TCTTGTCA | 0.24 ± 0.014
CGATAATA | 0.0189 ± 0.021
TAAATTTA | -0.119 ± 0.15
AACGTCCG | -0.176 ± 0.067
GATCACTA | -0.109 ± 0.12
AGTCCGCA | 0.00453 ± 0.0042
CGTCCGTC | -0.0735 ± 0.0026
GAGCGGTA | -0.181 ± 0.043
CTTCGTCC | -0.0546 ± 0.022

Sequence | PBM E-score of 8-mer
ACAAAAGA | -0.223 ± 0.066
ATGGGTAC | -0.193 ± 0.058
TAAAGCGA | -0.0669 ± 0.031
AACCATCT | -0.148 ± 0.046
AGTTTAGG | -0.0808 ± 0.015
CACGATGC | 0.155 ± 0.037
CGTTCGAA | -0.228 ± 0.011
AATGCAGA | -0.212 ± 0.018
CCCCTCGC | -0.055 ± 0.024
GGACTACA | -0.248 ± 0.022
GCTGATAA | 0.00362 ± 0.015
CGGAAAAC | -0.234 ± 0.027
CATAGATC | -0.112 ± 0.042
TGGTGTAA | 0.292 ± 0.059
CACTCCCA | 0.216 ± 0.035
AAACTACG | -0.0644 ± 0.076
AACTAAAA | -0.0486 ± 0.07
AACGTATA | -0.0511 ± 0.11
CGCATGAG | -0.0159 ± 0.056
ATTACAAT | -0.17 ± 0.059
ATTCGTCG | 0.133 ± 0.016
ATGGCTGG | -0.138 ± 0.012
ACATCCGT | 0.112 ± 0.015
CCGGGGTC | -0.116 ± 0.035
ATCAAGGC | -0.207 ± 0.0082

Sequence | PBM E-score of 8-mer
ACGCAACA | 0.121 ± 0.024
GATCACCA | 0.112 ± 0.033
CTCAGCAC | 0.171 ± 0.0069
CACCAGCA | 0.162 ± 0.062
AAACGGCC | -0.232 ± 0.024
CGGGTTGA | -0.02353 ± 0.00017
CCTGGAAA | -0.207 ± 0.089
GTGGAGAA | 0.0416 ± 0.068
TACGCGTA | 0.177 ± 0.034
CCTTCGCA | 0.3329 ± 0.002
GTTCCCTA | -0.277 ± 0.018
ACTACGAA | -0.0684 ± 0.063
GCTACCTA | -0.0771 ± 0.051
GTGATGCA | -0.0412 ± 0.099
GGGGGAGA | -0.2 ± 0.012
ATTCGACA | 0.138 ± 0.032
AGGACGGC | -0.337 ± 0.0074
AGCCGCGG | -0.149 ± 0.057
GCTAGGCA | -0.0643 ± 0.013
ACACCTTC | 0.4746 ± 0.0017
AGGAAGGA | -0.185 ± 0.0035
AACCCTTA | -0.129 ± 0.029
